Measured values published in the supplement of paper PMC8007513.
Counter-ions that a name gives are not always drawn. ± gives the standard error. The whole screen tested about 1,300 compounds, of which about 75 (6%) showed an effect of 50% or more. The list shows a part of the results.

System: Trichoderma virens ATCC 9645
Experiment: growth yield (OD600) relative to untreated control; higher = less growth inhibition
Conditions: compound concentration: 100 uM
How it was run: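 A biocide at 200 ng ml^−1 was co-applied to some wells, and library compounds were present in all test wells at 100 μM final. The wells held 100 μl of Trichoderma virens ATCC 9645 spores at 15,000 spores ml^−1 in potato dextrose broth, grown at 30 °C in 96-well plates, with OD600 read at 40 h and 72 h. Results are relative growth against the control without either agent, averaged across duplicate screens.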

SMILES	growth yield (40 h) [%]	growth yield (72 h) [%]
COc1ccc(CCN)cc1OC [Homoveratrylamine]	102.8 ± 0.16	101 ± 1.9
CC(=O)O[C@H]1C[C@H](O[C@H]2[C@@H](O)C[C@H](O[C@H]3[C@@H](O)C[C@H](O[C@H]4CC[C@@]5(C)[C@H](CC[C@@H]6[C@@H]5C[C@@H](O)[C@]5(C)[C@@H](C7=CC(=O)OC7)CC[C@]65O)C4)O[C@@H]3C)O[C@@H]2C)O[C@H](C)[C@H]1O[C@@H]1O[C@H](CO)[C@@H](O)[C@H](O)[C@H]1O [Lanatoside C]	101 ± 5.2	98.2 ± 3.6
COc1ccc(CCN2CCC(Nc3nc4ccccc4n3Cc3ccc(F)cc3)CC2)cc1 [Astemizole]	79.1 ± 2.9	96.5 ± 6.5
Oc1cc(Cl)ccc1Oc1ccc(Cl)cc1Cl [Triclosan]	6.99 ± 4.1	3.25 ± 0.1
CCN(CC)C(C)C(=O)c1ccccc1 (centres undefined) [Amfepramone hydrochloride]	102 ± 3	99 ± 3.1
C[N+]1([O-])[C@@H]2C[C@@H](OC(=O)[C@H](CO)c3ccccc3)C[C@H]1[C@@H]1O[C@@H]12 (some centres undefined) [Scopolamin-N-oxide hydrobromide]	100 ± 1.6	96 ± 1.1
CCC1(CC)C(=O)C=CNC1=O [Pyrithyldione]	98.3 ± 1.8	97.3 ± 1.7
COc1ccc(Cc2nccc3cc(OC)c(OC)cc23)cc1OC [Papaverine hydrochloride]	102.9 ± 0.95	103 ± 0.63
Fc1ccc(C(OCCN2CCN(CCCc3ccccc3)CC2)c2ccc(F)cc2)cc1	61.79 ± 0.16	92 ± 0.94
CC(C)(C)NCC(O)c1cc(Cl)c(N)c(Cl)c1 (centres undefined) [Clenbuterol hydrochloride]	106.1 ± 0.32	111
CC[C@@]1([C@@H]2O[C@@H]([C@H]3O[C@@](O)(CO)[C@H](C)C[C@@H]3C)C[C@@H]2C)CC[C@H]([C@]2(C)CC[C@]3(C[C@H](O)[C@@H](C)[C@@H]([C@@H](C)[C@@H](OC)[C@H](C)C(=O)O)O3)O2)O1 [Monensin sodium salt]	105.5 ± 0.32	105 ± 7.5
CCN(C)C(=O)Oc1cccc([C@H](C)N(C)C)c1 [Rivastigmine]	103 ± 1.3	95.2 ± 5.2
CCC1(c2ccc(N)cc2)CCC(=O)NC1=O (centres undefined) [Glutethimide, para-amino]	102 ± 2.5	106 ± 1.3
C[C@]12CC[C@H](O)C[C@@H]1CC[C@@H]1[C@@H]2CC[C@]2(C)C(=O)CC[C@@H]12 [Epiandrosterone]	91.8	98
CCn1cc(C(=O)O)c(=O)c2cc3c(cc21)OCO3 [Oxolinic acid]	95.46 ± 0.16	97.43 ± 0.1
CN(C)C(=O)Oc1cc(OC(=O)N(C)C)cc(C(O)CNC(C)(C)C)c1 (centres undefined) [Bambuterol hydrochloride]	98.64 ± 0.79	103 ± 1.1
NCC(O)c1ccc(O)cc1 (racemic) [(+,-)-Octopamine hydrochloride]	106 ± 1.4	99.7 ± 2.8
CN1[C@@H]2CC[C@H]1C[C@@H](OC1c3ccccc3CCc3ccccc31)C2 [Deptropine citrate]	97.1 ± 2.7	97 ± 1.1
C[C@]12CC[C@@H]3c4ccc(OC(=O)N(CCCl)CCCl)cc4CC[C@H]3[C@@H]1CC[C@@H]2O [Estramustine]	107 ± 5.1	103 ± 3.7
C=C(C)[C@@H]1[C@H]2OC(=O)[C@@H]1[C@]1(O)C[C@H]3O[C@]34C(=O)O[C@H]2[C@]14C [Picrotoxinin]	100 ± 2.7	98.8 ± 2.9
CC(C)c1c(CN(C)C(C)Cc2ccccc2)n(C)n(-c2ccccc2)c1=O (centres undefined) [Famprofazone]	93.4 ± 0.32	91.6 ± 0.94

SMILES	growth yield (40 h) [%]	growth yield (72 h) [%]
NC(=O)CN1CCCC1=O [Piracetam]	103.9 ± 0.32	102.2 ± 0.52
CC(=O)OCC(=O)[C@H]1CC[C@H]2[C@@H]3CC[C@H]4C[C@H](O)CC[C@]4(C)[C@H]3C(=O)C[C@]12C [Alfadolone acetate]	95.5 ± 5.2	93.8 ± 3.8
CC(=O)NC1CCSC1=O (racemic) [N-Acetyl-DL-homocysteine Thiolactone]	98.32 ± 0.79	95.1 ± 2.8
CC(Cc1ccccc1)NCCC(c1ccccc1)c1ccccc1 (centres undefined) [Prenylamine lactate]	104 ± 2.1	113 ± 3.1
C[C@]12CC[C@H](O)C[C@H]1CC[C@@H]1[C@@H]2C[C@@H](O)[C@]2(C)[C@@H](C3=CC(=O)OC3)CC[C@]12O [Digoxigenin]	99.6 ± 7.5	98.2 ± 5.5
Clc1ccc(C(OCCN2CCCCC2)c2ccccc2)cc1 (centres undefined) [Cloperastine hydrochloride]	103 ± 8.3	106 ± 6.9
CN1CCN(C(=O)OC2c3nccnc3C(=O)N2c2ccc(Cl)cn2)CC1 (centres undefined) [Zopiclone]	106.3 ± 0.79	106 ± 1.5
NC(=O)C[S+]([O-])C(c1ccccc1)c1ccccc1 (centres undefined) [Modafinil]	102 ± 1.3	101 ± 1.7
Cc1cccc(C)c1NC1=NCCCS1 [Xylazine]	108 ± 4.5	106 ± 3.4
COc1cc([C@@H]2c3cc4c(cc3[C@H](O)[C@H]3COC(=O)[C@H]23)OCO4)cc(OC)c1OC [Podophyllotoxin]	98.5 ± 1.3	96.38 ± 0.1
CCC1(c2cccc(O)c2)CCCCN(C)C1 (centres undefined) [Meptazinol hydrochloride]	101 ± 1.8	98.79 ± 0.84
C[C@@H]1CC[C@H]2[C@@H](C)C(=O)O[C@@H]3O[C@@]4(C)CC[C@@H]1[C@]32OO4 [Artemisinin]	69.89 ± 0.64	82.4 ± 2.1
CCC(COC(=O)c1cc(OC)c(OC)c(OC)c1)(c1ccccc1)N(C)C (centres undefined) [Trimebutine]	104 ± 3	101 ± 2.9
NCCc1c[nH]c2ccc(O)cc12 [Serotonin hydrochloride]	112 ± 5.6	109 ± 4.2
CCN(C(C)=O)c1cccc(-c2ccnc3c(C#N)cnn23)c1 [Zaleplon]	101 ± 1.4	102 ± 1.1
CO[C@]12C[C@@H](COC(=O)c3cncc(Br)c3)CN(C)[C@@H]1Cc1cn(C)c3cccc2c13 [Nicergoline]	99.1 ± 2.2	103 ± 3.2
CC(=O)OCC1=C(C(=O)O)N2C(=O)[C@@H](N)[C@H]2SC1 [Cephalosporanic acid, 7-amino]	105 ± 5.7	107 ± 6.2
C[N+]12CCC(CC1)C(OC(=O)C(O)(c1ccccc1)c1ccccc1)C2 (centres undefined) [Clidinium bromide]	92.4 ± 3.5	89.9 ± 3.7
C[C@]12Cc3c[nH]nc3C[C@@H]1CC[C@@H]1[C@@H]2CC[C@@]2(C)[C@H]1CC[C@]2(C)O [Stanozolol]	88.3 ± 14	93.7 ± 10
CC(C)(C)NCC(O)c1ccccc1Cl (centres undefined) [Tulobuterol]	108.2 ± 0.48	103.4 ± 0.21
CC(C)C[C@H](CN)CC(=O)O [Pregabalin]	101.5 ± 0.16	100.5 ± 0.63
